# From the supplement of paper PMC8728848
# The list shows a part of the results.
# B1: DrGal9 (Danio rerio) (protein)
# chain: MAFYQQPPYYNPRIPFSGPIQGGLQDGKSIIISGRVLPGANRFHVNLQCGSHSEANVALHFNPRYEDTDYVVNNSYLNRTWGSEERKYESPFAQGQTFTLQILVAQDKYKISTNGRHFMDYKHRIPFTQVDTVAVEGMVEVNSVAFQNPAGFIPPQAGYAPQYAVPPGCGFPAFPSAPNYTIPHKTVMNGGLHPGKNIVINGVVNPNAKSIIFNLCYRSGIAFHYNPRFDENVVVRNTNQMEKWGAEERFGGLPFHKGQPFQVTISCNPQHYNVFVNGKQEHTYKHRYTKLNDIDILEICGDLQLTSVQA
# Assays:
# Assay in all cases: glycan array binding signal (z-score within array); higher = stronger binding
# Conditions in all cases: glycan notation: IUPAC condensed, linker removed
# [1] = target: Neu5Ac(a2-6)GlcNAc(b1-4)GlcNAc(b1-4)GlcNAc
# How it was run: (§1)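 Columns mapping to the same glycan were averaged after glycan names were converted to IUPAC-condensed notation. The data come from 3228 arrays in the Consortium for Functional Glycomics database, limited to those with an available protein sequence. Binding is reported as a within-array Z-score averaged across arrays of one protein sequence and across linkers.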
# Neu5Ac(a2-8)Neu5Ac = target: Neu5Ac(a2-8)Neu5Ac
# How it was run: as §1
# [2] = target: Neu5Ac(a2-8)Neu5Ac(a2-3)Gal(b1-3)GalNAc(b1-4)[Neu5Ac(a2-3)]Gal(b1-4)Glc
# How it was run: as §1
# [3] = target: Neu5Ac(a2-8)Neu5Ac(a2-3)Gal(b1-3)GalNAc(b1-4)[Neu5Ac(a2-8)Neu5Ac(a2-3)]Gal(b1-4)Glc
# How it was run: as §1
# [4] = target: Neu5Ac(a2-8)Neu5Ac(a2-3)Gal(b1-4)Glc
# How it was run: as §1
# [5] = target: Neu5Ac(a2-8)Neu5Ac(a2-3)Gal(b1-4)GlcNAc
# How it was run: as §1
# [6] = target: Neu5Ac(a2-8)Neu5Ac(a2-3)[Gal(b1-3)GalNAc(b1-4)]Gal(b1-4)Glc
# How it was run: as §1
# [7] = target: Neu5Ac(a2-8)Neu5Ac(a2-3)[GalNAc(b1-4)]Gal(b1-4)Glc
# How it was run: as §1
# [8] = target: Neu5Ac(a2-8)Neu5Ac(a2-8)Neu5Ac
# How it was run: as §1
# [9] = target: Neu5Ac(a2-8)Neu5Ac(a2-8)Neu5Ac(a2-3)Gal(b1-4)Glc
# How it was run: as §1
# [10] = target: Neu5Ac(a2-8)Neu5Ac(a2-8)Neu5Ac(a2-3)[Gal(b1-3)GalNAc(b1-4)]Gal(b1-4)Glc
# How it was run: as §1
# [11] = target: Neu5Ac(a2-8)Neu5Ac(a2-8)Neu5Ac(a2-3)[GalNAc(b1-4)]Gal(b1-4)Glc
# How it was run: as §1
# [12] = target: Neu5Ac(a2-8)Neu5Ac(a2-8)Neu5Ac(a2-8)Neu5Ac(a2-3)[GalNAc(b1-4)]Gal(b1-4)Glc
# How it was run: as §1
# [13] = target: Neu5Ac(a2-8)Neu5Gc(a2-3)Gal(b1-4)GlcNAc
# How it was run: as §1
# [14] = target: Neu5Ac(b2-6)Gal(b1-4)GlcNAc
# How it was run: as §1
# Neu5Ac(b2-6)GalNAc = target: Neu5Ac(b2-6)GalNAc
# How it was run: as §1
# [15] = target: Neu5Ac9Ac(a2-3)Gal(b1-3)GlcNAc
# How it was run: as §1
# [16] = target: Neu5Ac9Ac(a2-3)Gal(b1-4)GlcNAc
# How it was run: as §1
# [17] = target: Neu5Ac9Ac(a2-6)Gal(b1-4)GlcNAc
# How it was run: as §1
# [18] = target: Neu5Gc(a2-3)Gal(b1-3)GlcNAc
# How it was run: as §1
# [19] = target: Neu5Gc(a2-3)Gal(b1-3)[Fuc(a1-4)]GlcNAc
# How it was run: as §1
# Neu5Gc(a2-3)Gal(b1-4)Glc = target: Neu5Gc(a2-3)Gal(b1-4)Glc
# How it was run: as §1
# [20] = target: Neu5Gc(a2-3)Gal(b1-4)GlcNAc
# How it was run: as §1
# [21] = target: Neu5Gc(a2-3)Gal(b1-4)GlcNAc(b1-3)Gal(b1-4)GlcNAc(b1-2)Man(a1-3)[Neu5Gc(a2-3)Gal(b1-4)GlcNAc(b1-3)Gal(b1-4)GlcNAc(b1-2)Man(a1-6)]Man(b1-4)GlcNAc(b1-4)GlcNAc
# How it was run: as §1
# [22] = target: Neu5Gc(a2-3)Gal(b1-4)[Fuc(a1-3)]GlcNAc
# How it was run: as §1
# [23] = target: Neu5Gc(a2-6)Gal(b1-4)GlcNAc
# How it was run: as §1
# Neu5Gc(a2-6)GalNAc = target: Neu5Gc(a2-6)GalNAc
# How it was run: as §1
# [24] = target: Neu5Gc(a2-8)Neu5Ac(a2-3)Gal(b1-4)GlcNAc
# How it was run: as §1
# [25] = target: Neu5Gc(a2-8)Neu5Gc(a2-3)Gal(b1-4)GlcNAc
# How it was run: as §1
# [26] = target: Neu5Gc(a2-8)Neu5Gc(a2-3)Gal(b1-4)GlcNAc(b1-3)Gal(b1-4)GlcNAc
# How it was run: as §1
# [27] = target: Neu5Gc(a2-8)Neu5Gc(a2-6)Gal(b1-4)GlcNAc
# How it was run: as §1
# [28] = target: Neu5Gc(b2-6)Gal(b1-4)GlcNAc
# How it was run: as §1
binder,measurement,setting,value
B1,glycan array binding signal (z-score),[1],-0.385
same,glycan array binding signal (z-score),Neu5Ac(a2-8)Neu5Ac,-0.399
same,glycan array binding signal (z-score),[2],-0.398
same,glycan array binding signal (z-score),[3],0.017
same,glycan array binding signal (z-score),[4],-0.374
same,glycan array binding signal (z-score),[5],-0.152
same,glycan array binding signal (z-score),[6],-0.326
same,glycan array binding signal (z-score),[7],-0.393
same,glycan array binding signal (z-score),[8],-0.392
same,glycan array binding signal (z-score),[9],-0.362
same,glycan array binding signal (z-score),[10],-0.404
same,glycan array binding signal (z-score),[11],-0.388
same,glycan array binding signal (z-score),[12],-0.417
same,glycan array binding signal (z-score),[13],-0.251
same,glycan array binding signal (z-score),[14],-0.398
same,glycan array binding signal (z-score),Neu5Ac(b2-6)GalNAc,-0.403
same,glycan array binding signal (z-score),[15],-0.093
same,glycan array binding signal (z-score),[16],-0.244
same,glycan array binding signal (z-score),[17],-0.379
same,glycan array binding signal (z-score),[18],-0.32
same,glycan array binding signal (z-score),[19],-0.383
same,glycan array binding signal (z-score),Neu5Gc(a2-3)Gal(b1-4)Glc,-0.343
same,glycan array binding signal (z-score),[20],-0.233
same,glycan array binding signal (z-score),[21],0.69
same,glycan array binding signal (z-score),[22],-0.351
same,glycan array binding signal (z-score),[23],-0.336
same,glycan array binding signal (z-score),Neu5Gc(a2-6)GalNAc,-0.407
same,glycan array binding signal (z-score),[24],-0.305
same,glycan array binding signal (z-score),[25],-0.224
same,glycan array binding signal (z-score),[26],-0.161
same,glycan array binding signal (z-score),[27],-0.399
same,glycan array binding signal (z-score),[28],-0.411
